Some of the results follow.
Each sequence was assayed on PfHDP1 homeodomain (GST-tagged) (assay: gcPBM binding intensity (ln(normalized median fluorescence intensity)); higher = stronger DNA binding).
Summary of the method: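 After 1 h on an Agilent 4 × 180k array of primer-extended double-stranded 36-bp intergenic genomic probes and negative controls, bound GST-tagged P. falciparum DNA-binding domains were detected with Alexa488 anti-GST antibody and scanned at 488 nm. The domains had been expressed in E. coli, and binding took place in 1× PBS with 1% milk, 0.2 mg/ml BSA, 0.5% salmon testes DNA and 0.03% Triton X-100. Binding intensity is the highest Masliner-normalised natural-log median intensity across replicate spots of either probe orientation.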

| Sequence | gcPBM binding intensity (ln) |
| --- | --- |
| TCATAAATTAAACACACACACACATCTGGATACCCC [CACACA_site9096] | 7.12 |
| ATATATTTTTTTTAGCGTACATGCAAAAAAAAAAAA [XGTACX_site4590] | 6.44 |
| TTTTGTTGTTGTTGTTGTACATAAATAATAAAATAT [XGTACX_site8681] | 6.55 |
| AATTAACCGAAACACACACACATATATATATATATA [CACACA_site3963] | 9.38 |
| TATACACACAGACATGCATGCACATATATATATACA [TGCATGCA_site30] | 9.14 |
| AAATTAAAAGAAAATACACACCTGTGGGTGCTTATA [CACACA_site5143] | 5.73 |
| TATTTATTCACTTATTGTACTTATATATATAATAAA [XGTACX_site6147] | 6.84 |
| ATTTTTTTTTGTTTAATGTTATGTGGTCATTAAATT [CACACA_negctrl_site1177] | 6.83 |
| TTATATTTATATGTAATACAAAATAACAAAAAATTT [CACACA_negctrl_site1721] | 6.08 |
| TTGGTAATTTTAAAATGTACTTATTATATATATATA [XGTACX_site5642] | 8.48 |
| TATATATATATATCCACACACATACATATATTAATA [CACACA_site69] | 9.38 |
| TATACACTTGTAATAACACACATTATTTTTTTTTTT [CACACA_site1324] | 6.43 |
| ATAAAAAATTTAAGTATTTTTTACAAACCTATAAAT [GTGCAC_negctrl_site51] | 6.09 |
| TACTGCCTTCCATACCCACACACTTCCCATATATTT [CACACA_site2705] | 7.07 |
| TCTAAAAATAAGAACACACACATATAAGCATATAAA [CACACA_site2274] | 6.82 |
| AAAACGCTACATAATTGTACATGTAGAAATAAAAGC [XGTACX_site2895] | 6.98 |
| ATTTAAAAAAAAAAAACACACATGTGAATAGAAAAG [CACACA_site3323] | 6.8 |
| AGTATAATAATATTTACACACGCATATGTTATATAT [CACACA_site1476] | 6.8 |
| ACTCTTGATCTGAATGCACACAATAAATTATATAAA [CACACA_site1438] | 9.32 |

| Sequence | gcPBM binding intensity (ln) |
| --- | --- |
| AAAAATTTGGCATACACACACACACCCACACCCACA [CACACA_site587] | 6.72 |
| TATGTATTTAAATTAACACACATATGTGGTTAATAG [CACACA_site5697] | 6.51 |
| ATATATTATATATATTGTACATGTAAAATTTTAAAA [XGTACX_site7197] | 6.78 |
| ACATATATATATATATATATATATATATCATTATGT [CACACA_negctrl_site724] | 7.44 |
| TATGTGCACCCATGTACATGCGGACATATGTTATAT [TGCATGCA_site383] | 10.6 |
| GATATTCATAGAAACACACATACAAATTATGTATAT [CACACA_site144] | 6.38 |
| TTGCCCATTTAATTAACACACAAATATTTATATTCT [CACACA_site738] | 6.9 |
| ATTTCCTTTTGTTTCAGTACATAATTTTTTTTTTTT [XGTACX_site4842] | 6.99 |
| GTTAAATAATATATATGTACATACATAAGTGTTACT [XGTACX_site4778] | 6.37 |
| TTTTTAAAGTTTTATACACACACCAAAATTATTCTA [CACACA_site600] | 6.92 |
| TAATTGTACGCCAATACACACAGAATTAAAATGTAG [CACACA_site4234] | 6.73 |
| TTTTACAATAATAAGTAGATCTAAATAAAGATTTAA [GTGCAC_negctrl_site547] | 6.19 |
| AGTAGTCTGGAGAAAAGTACATAGTATCTGGTAACC [XGTACX_site2024] | 6.25 |
| CATACAAATTAATATGTACACACAAATATATATATA [CACACA_site8605] | 8.6 |
| AAAAAAAAAAAATAATGTACATATGTATTTGAGAAA [XGTACX_site3572] | 6.51 |
| TTTATATTATTTAATGAGAAATAATTATAAACAATT [TGCATGCA_negctrl_site65] | 5.97 |
| TTCCAAAATTGCACATGTACAAAATTCTCCAATATG [XGTACX_site3419] | 9.95 |
| TTTTTTTTTTTTTTTTGTACATATTTTAATTTGTTT [XGTACX_site6297] | 6.27 |
| ATGGCCACTGTGAAATGTACAAAAAAAAAATACAAT [XGTACX_site2874] | 6.68 |

| Sequence | gcPBM binding intensity (ln) |
| --- | --- |
| TATGTATATATATATATATATATATATATATATATA [TGCATGCA_negctrl_site491] | 9.37 |
| TTTCATAACAAAAAAGTGCAAAATAGCACGAACATT [GTGCAC_site9703] | 8.91 |
| AGAAAAAGGAGAAAAAGTACAAAACGGAGTAGTATT [XGTACX_site3858] | 6.73 |
| AAAAATTATATACATCATAGAATTAACATTTTAAAT [GTGCAC_negctrl_site369] | 6.05 |
| AAATCAACGATCTATACATGCATATAATATATACAT [TGCATGCA_site25] | 6.26 |
| TAATAATACCCTTGCTGTACCAAATAAAGTTGAATA [XGTACX_site6922] | 5.98 |
| GTAGCAATAAACATATGTACATATATATATTTTTTC [XGTACX_site5814] | 6.7 |
| ATTAAAAAGACAAAAAAAAAATTTTTTTTTTTTTTT [CACACA_negctrl_site1027] | 6 |
| AAAAAAATACCATTCACACATATTCTTTTATTATTT [CACACA_site5113] | 6.35 |
| AAAAAAAAAAAGTTTACACACATTAATTTTACATAT [CACACA_site834] | 6.21 |
| TATGAGGAAACGTGGTGTACTTTTTTTTAATAAAAA [XGTACX_site1351] | 6.37 |
| ATAAATATAATAATCATACACACCAAAGAGAATATT [CACACA_site1888] | 6.56 |
| AAAGTTATTATGCAATAATTATGATAATTAATATAT [TGCATGCA_negctrl_site316] | 7.41 |
| ATGACTTACATATATAGTACTTTGTTTTGGAGTTGC [XGTACX_site94] | 6.43 |
| ACAAACAAAGAAAGAACACACATACACAATATACCT [CACACA_site5566] | 6.8 |
| CATATAAAAATATATGCACACAAATAAAAAATTATA [CACACA_site9210] | 10 |
| ATATTTAAATAATATTCACACACAAAATTATATTTT [CACACA_site7955] | 6.44 |
| ATTTCTCAATCGTAATGTACAAAAAAAAGGGAAAAG [XGTACX_site2781] | 6.61 |

Source: the supplement of paper PMC11417369
